Laboratory results as given in PubChem BioAssay AID662 (National Center for Advancing Translational Sciences (NCATS), 2007).
The whole screen tested about 71,000 compounds, of which about 1,800 (2.5%) were called active. The inconclusive results got no clear call from the source; some entries with a clear call stand among them for comparison. The call rests on the fitted dose curve; in most records, active means well fitted activation curve with a large enough effect in the signal ratio, with a control signal flat (not every such curve was filed as active); inconclusive means small, poorly fitted or top-dose-only effect, or effect the other way, or a change in a side signal; inactive means flat fitted curve, though single readings scatter; the % refers to the signal ratio. A potency beside an inconclusive call is a rough fit, not a confirmed value.

Assay: Cell signaling CRE-BLA (Fsk stim); on activity change, negative = inhibition: % of control where 0% means no effect
Details: CHO CRE-bla reporter (cAMP response element driving beta-lactamase), forskolin EC10, beta-lactamase ratio; activity change, negative = inhibition: at 38.2 µM (top of the series) unless noted
Summary of the method: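 Cells were plated overnight at 37 °C, exposed to compound titrations plus EC10 NKH 477 for 3 h, then given CCF4 dye for 2 h at room temperature. Blue/green (460/530 nm) ratio was converted to %Activity and AC50 values calculated.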
Potency means the concentration at half of the fitted maximal effect; tags describe the fitted curve by direction and shape.

SMILES	activity change, negative = inhibition	Potency
Cc1cc(C(=O)CSc2nc3ccccc3c(=O)n2C)c(C)n1Cc1ccc2c(c1)OCO2	inactive	
CCCc1cc(C(=O)NCCc2ccccc2)no1	inactive	
COC(=O)c1ccc(NC(=O)CN2C(=O)CCC2=O)cc1		inconclusive: 5.01 µM [falling, single point]
CCNc1ncc2nc(-c3ccc(F)cc3)c(=O)n(-c3ccccc3)c2n1		inconclusive: 2.51 µM [rising, full curve]
Cc1ccc2[nH]c(=O)c(CN(CCCN3CCOCC3)C(=O)Nc3cccc(Cl)c3)cc2c1		inconclusive: 10 µM [rising, single point]
CC(=O)Nc1cc(C(=O)N2CCCC2)ccc1S(=O)(=O)c1ccc(C)cc1	inconclusive: 21.3%	
CCOC(=O)c1c(NC(=O)C2CCN(S(=O)(=O)c3cccs3)CC2)sc(C)c1C	inconclusive: 23.2%	
O=C(c1ccc(F)cc1)C1CCN(CCn2c(=O)[nH]c3ccccc3c2=O)CC1		inconclusive: 10 µM [falling, partial curve, poor fit]
Nc1ncn(C(=O)c2ccco2)n1	inconclusive: -13.1%	
Cc1cc(C)c(NC(=O)Cn2c(=O)n(Cc3ccco3)c(=O)c3ccccc32)c(C)c1	inconclusive: 7.26%	
C[C@@]1(C(NC(=O)c2ccccc2)c2ccc(-c3ccccc3)cc2)C[C@H]1C1CCCCC1 (some centres undefined)	inactive	
O=C(CN1C(=O)c2ccccc2C1=O)Nc1ccc(S(=O)(=O)NCC2CCCO2)cc1 (centres undefined)	inactive	
CCN(CC)S(=O)(=O)c1ccc2c(c1)c(=O)c(C(=O)NCCN(C)CCc1ccccc1)cn2C	inconclusive: 0.288%	
Cc1nc2cc(C(=O)OCC(=O)N(CC(C)C)C3CCS(=O)(=O)C3)ccc2n1-c1ccccc1 (centres undefined)	inconclusive: 27.6%	
COc1cccc(Nc2ncc3ncc(=O)n(CCC#N)c3n2)c1		inconclusive: 15.8 µM [rising, partial curve]
CCOc1cccc(/C(O)=C2/C(=O)C(=O)N(Cc3ccco3)C2c2ccncc2)c1 (centres undefined)	inconclusive: -4.15%	
CCn1ncc(Cl)c1C(=O)Nc1ccncc1	inactive	
Cc1cc(O)c(C(C)C)cc1CN1CCCCC1	inactive: -7% [at 7.6 µM]	
CCCCC[C@H](O)c1cccc(OCc2ccc3ccccc3n2)c1	inactive	
Cc1cc2c(c(=O)n1CCN(C)C)C(c1ccccc1Br)C(C#N)=C(N)O2 (centres undefined)	inactive	

SMILES	activity change, negative = inhibition	Potency
CCOC(=O)C1=C(C)Nc2nc(C)nn2C1c1ccc(OC)c(OC)c1 (centres undefined)		inconclusive: 10 µM [rising, partial curve]
Cc1ccccc1-c1ccc2ncnc(N(C)C)c2c1		inconclusive: 10 µM [rising, partial curve]
COC(=O)N1CCC2(CCN(Cc3nccs3)CC2)CC1	inactive	
Cc1cc(C)n(-c2nnc3n2N=C(c2ccccc2)CS3)n1	inconclusive: -0.761%	
COc1cc2c(cc1OC)CN(C(=O)c1cccs1)CC2		inconclusive: 12.6 µM [rising, partial curve]
COc1ccc(NC(=O)CCc2nc(-c3ccc(C)cc3)no2)c(OC)c1		inconclusive: 1.58 µM [falling, partial curve, poor fit]
CC1=CC(C)(C)N2C(=O)C3(C(C#N)=C(N)Oc4cc(O)ccc43)c3cccc1c32 (centres undefined)		active: 3.16 µM
Cc1noc(NS(=O)(=O)c2cccc3c(N(C)C)cccc23)c1C	inconclusive: -14.8%	
Cc1cc(C(=O)OCC(=O)c2c(N)n(C)c(=O)n(C)c2=O)c(C)n1-c1ccccc1	inconclusive: 18.4%	
Cc1ccc(NC(=O)C2CCCN(S(=O)(=O)c3cccs3)C2)cc1 (centres undefined)	inconclusive: 15.3%	
COc1ccc(CCNc2oc(Cc3cccc4ccccc34)nc2C#N)cc1OC		inconclusive: 5.01 µM [rising, partial curve]
CCC(c1nnnn1Cc1ccco1)N(CCN1CCOCC1)Cc1cc2cc(C)ccc2[nH]c1=O (centres undefined)	inconclusive: -25.5%	
CCN1CCN(c2oc(COc3ccc(-c4ccccc4)cc3)nc2C#N)CC1		active: 5.01 µM
Cn1c(=O)c2c(nc(NCCc3ccccc3)n2Cc2ccc(F)cc2)n(C)c1=O	inconclusive: -2.34%	
COCCOC(=O)c1c(C)oc2ccc(NS(=O)(=O)c3ccc(F)cc3)cc12		inconclusive: 10 µM [rising, partial curve]
Cc1c(NC(=O)c2c(F)cccc2F)c(=O)n(-c2ccccc2)n1C	inconclusive: -5.67%	
CCOC(=O)C1=C(C)NC(SCC(=O)O)=NC1c1ccccc1 (centres undefined)	inconclusive: 24.6%	
CCCc1cc(=O)[nH]c(SCCOc2ccc(Cl)cc2)n1		inconclusive: 25.1 µM [rising, single point]
Cc1cc2nc(-c3ccc(NC(=O)c4cccnc4)cc3)oc2cc1C	inconclusive: 5.27%	
